From the supplement of paper PMC11417369
± gives the standard deviation of the averaged measurements. This is one part of the list.

Tested on: PfAP2-G AP2 domain (GST-tagged)
Experiment: gcPBM binding intensity (ln(normalized median fluorescence intensity)); higher = stronger DNA binding
Outline: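 Plasmodium falciparum DNA-binding domains carrying a GST tag were expressed in E. coli and applied for 1 h, at about 25 μg on average, to an Agilent 4 × 180k array. The array held primer-extended double-stranded 36-bp intergenic genomic probes together with negative controls, and binding took place in 1× PBS with 1% milk, 0.2 mg/ml BSA, 0.5% salmon testes DNA and 0.03% Triton X-100. An Alexa488 anti-GST antibody detected bound protein, and the array was scanned at 488 nm. Binding intensity is taken as the highest Masliner-normalised natural-log median intensity across replicate spots of either probe orientation.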

| Sequence | gcPBM binding intensity (ln) |
| --- | --- |
| TTAAAATGTTGTAACGTGCACATTTTGTGGAAATCA [GTGCAC_site9559] | 10.4 ± 0.22 |
| ATACAAACAATTATTTGTACATAAAATTTTTTTTTT [XGTACX_site90] | 10.9 ± 0.47 |
| ATGAATCTTTTAAAAAGTACATGTGAAAAAAATAAA [XGTACX_site49] | 11.3 ± 0.87 |
| TTATAATTGTAAGGTAGTACATATAAATCAAATAAT [XGTACX_site7190] | 11.5 ± 0.94 |
| TATACAGATGGACACACACACATATATATATATATA [CACACA_site5272] | 11.1 ± 0.67 |
| GGTGGTAAAAAACCTGCATGTCGAAATATTAAATAC [TGCATGCA_site33] | 10.3 ± 0.18 |
| AAAAAAAAAAAAAAGAGTACTCATATAAAAATATAA [XGTACX_site6551] | 11.5 ± 0.92 |
| TACAGAATTGTATATAGTACATAAAACAATATATAT [XGTACX_site7275] | 10.9 ± 0.5 |
| GTATATGAATAATATTTTATGGTAATTTTTTTTTTT [XGTACX_negctrl_site512] | 10 ± 0.2 |
| AAGAAGAAACAAAACACACACAGTCTTCTTTTCTAT [CACACA_site3088] | 9.82 ± 0.16 |
| AAACTTGACGAACACACACACACATATATAAAAAAA [CACACA_site6494] | 10.3 ± 0.37 |
| AATGAAAAGTAAAATACACACACATAATATAATTTA [CACACA_site8608] | 9.93 ± 0.12 |
| TGTGTAAAAATCATGGGTACACATTTTGATACCAAT [XGTACX_site1779] | 11.6 ± 0.95 |
| ATAAATTAAAAACACACACACATCTGGATACCCCTA [CACACA_site5780] | 11.1 ± 0.71 |
| TTTTTATAAAAAATTTACACTATATGACAGAAGTAA [XGTACX_negctrl_site481] | 10 ± 0.16 |
| ATATTTTTATATGAGGTGCATATAATGACAATTAAG | 10.3 ± 0.32 |
| TCTTTTTATGTTCTAGAGCATTTTATTATTTAACAT [CACACA_negctrl_site1699] | 10.05 ± 0.092 |
| ATACTATTTAAATGGGTGCTAAAAATAACAAAAATT | 10.3 ± 0.26 |
| ATATATATACACAATAGTACGTGTAATATTATTATT [XGTACX_site2151] | 11 ± 0.69 |
| TATACCTATAAATACACACACATATATAAATAAATA [CACACA_site6730] | 10.1 ± 0.17 |
| AATCGAAATCGTGCACGGACACATGCAGTAGCCGAG [XGTACX_site6001] | 10.9 ± 0.45 |
| TTCCCCCCCAGACACACACACACATACATACCACAT [CACACA_site2305] | 11.8 ± 0.84 |
| GAAGTTAGTGTTGACTGTACATATATATGTATATAT [XGTACX_site7243] | 11 ± 0.64 |

| Sequence | gcPBM binding intensity (ln) |
| --- | --- |
| AAACGTACATAATACACACACATGTATACATATAAA [CACACA_site2048] | 11.4 ± 0.97 |
| ATTTCTTTTTTTTTTTTTTTTAATGTAAAACATTTT [CACACA_negctrl_site1462] | 9.66 ± 0.014 |
| TACGTTTTATGACACACACACAAAAAAAAAAAAAAA [CACACA_site7764] | 10.3 ± 0.79 |
| GATGTATAAAATAATACATGCATGTCCTACATATAT [TGCATGCA_site155] | 10.8 ± 0.51 |
| TTTCTTTTTCGATATACACACTGTATGTGTCTAAAA [CACACA_site6054] | 10.1 ± 0.23 |
| TATATTTATAAATGAACACACACGCAATTTGAATCG [CACACA_site3370] | 10.34 ± 0.021 |
| CTGTATTTATTTTTCTGTACCAAATCACCCCTTGTA [XGTACX_site395] | 11 ± 0.54 |
| CGAAGGATAAACATACGTACATATATGTGTATAATA [XGTACX_site779] | 11.4 ± 0.67 |
| TTTCCGGTAATATGGAAATATATGTGGGTTTTTTTT [CACACA_negctrl_site1536] | 9.915 ± 0.049 |
| ACTATTTTAAAAATATGTACATACGTTGTAATTTAA [XGTACX_site7999] | 11.4 ± 0.83 |
| CTTTGGTTATAACACACATGCACACGTAAATAAATA [TGCATGCA_site976] | 10.5 ± 0.25 |
| TTGTATTAAAATCAAGTGCATATAATTTAAGTTCAT [GTGCAC_site9495] | 10 ± 0.16 |
| TTTTGTTTTTAGTTTATACACACCATATTAATATAA [CACACA_site3102] | 10.2 ± 0.13 |
| CATCACCTTTTTAAATGTACGCATAATACCAAAAAA [XGTACX_site1587] | 11.4 ± 0.89 |
| GTAGGTTACAAAATGTGAGAGAAGCAAATATAGAAA [CACACA_negctrl_site1819] | 10.18 ± 0.028 |
| TAGAATAAATTAATTACACACGGAATTATATATATA [CACACA_site1616] | 9.87 ± 0.22 |
| ATATAAGTACCTATAACACACATATATTATAAGTAT [CACACA_site7281] | 11 ± 0.67 |
| TATCATATATTATAGCGTACTTATTTATTTATTTAT [XGTACX_site1676] | 11.2 ± 0.67 |
| TATAATAGTTCATAGGTGCAATATAATAAATTTATA [GTGCAC_site9573] | 10.1 ± 0.27 |
| AAAAAAAAAAAAAAAAGTACATGAAAAAAAGAAGAA [XGTACX_site8384] | 11.6 ± 0.95 |
| TTTTTTTTTTAGTATGAACACACATATATATTATAA [CACACA_site8957] | 10.1 ± 0.29 |
| ATAAAACTTATTTAACGTACATATTTTATATACCTT [XGTACX_site5353] | 11.2 ± 0.64 |
